Experimental data as given in publication PMC4336329 (PLoS ONE, 2015).
Screen size: about 310,000 compounds; about 14,000 (4.5%) showed an effect of 50% or more. Effects have a minus sign here. This is one part of the list.

Target: human ether-à-go-go-related gene (hERG) potassium channel (human, UniProt Q12809)
Test: primary screen, population patch clamp on CHO cells stably expressing hERG
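Further: peak tail current of the secondary pulse compared with the same well before compound.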

Chain of human ether-à-go-go-related gene (hERG) potassium channel (Q12809 whole entry, looked up): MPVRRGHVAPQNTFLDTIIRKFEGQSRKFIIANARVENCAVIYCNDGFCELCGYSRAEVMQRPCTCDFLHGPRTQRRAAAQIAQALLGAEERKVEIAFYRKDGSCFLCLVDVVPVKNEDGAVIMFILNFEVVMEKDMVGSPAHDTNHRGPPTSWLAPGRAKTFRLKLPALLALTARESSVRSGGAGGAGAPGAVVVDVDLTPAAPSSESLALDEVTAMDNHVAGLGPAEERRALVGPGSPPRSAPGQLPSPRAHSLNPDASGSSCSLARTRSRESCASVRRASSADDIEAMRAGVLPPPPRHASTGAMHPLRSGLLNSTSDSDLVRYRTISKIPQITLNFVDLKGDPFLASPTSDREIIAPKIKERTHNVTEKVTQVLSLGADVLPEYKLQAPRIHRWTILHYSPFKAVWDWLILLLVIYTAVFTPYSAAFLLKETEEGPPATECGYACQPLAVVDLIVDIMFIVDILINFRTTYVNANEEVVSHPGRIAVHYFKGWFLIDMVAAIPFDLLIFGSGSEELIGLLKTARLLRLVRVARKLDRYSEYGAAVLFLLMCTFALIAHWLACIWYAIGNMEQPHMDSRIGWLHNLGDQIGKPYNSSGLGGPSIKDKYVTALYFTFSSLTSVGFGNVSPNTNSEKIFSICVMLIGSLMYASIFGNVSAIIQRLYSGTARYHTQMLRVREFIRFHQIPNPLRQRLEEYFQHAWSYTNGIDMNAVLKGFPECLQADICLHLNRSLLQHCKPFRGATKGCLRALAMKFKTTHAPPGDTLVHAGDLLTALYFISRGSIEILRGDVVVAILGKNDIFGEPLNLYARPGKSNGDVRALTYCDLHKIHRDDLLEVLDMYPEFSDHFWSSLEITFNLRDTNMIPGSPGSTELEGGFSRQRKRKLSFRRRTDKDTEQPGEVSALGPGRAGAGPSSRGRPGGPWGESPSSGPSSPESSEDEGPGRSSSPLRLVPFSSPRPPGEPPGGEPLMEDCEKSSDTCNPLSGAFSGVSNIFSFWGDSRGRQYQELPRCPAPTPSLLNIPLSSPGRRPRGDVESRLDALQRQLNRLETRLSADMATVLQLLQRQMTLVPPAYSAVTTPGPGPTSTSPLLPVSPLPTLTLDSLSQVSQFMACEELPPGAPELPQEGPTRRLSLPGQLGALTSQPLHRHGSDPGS

| SMILES | hERG current change (%, negative = inhibition) at 10uM [%] |
| --- | --- |
| O=C(NCCCN1CCOCC1)C(=O)N/N=C/c1ccccc1 | -20.2 |
| Cc1cc(S(=O)(=O)NCCCN2CCOCC2)ccc1F | -4.52 |
| CCC/C=N/NC(=O)C1COc2ccccc2O1 (stereo not drawn) | 9.6 |
| Cc1ccc(C(=O)N/N=C\c2ccc(Br)o2)o1 | 5.26 |
| O=C(CSc1nc2ncccc2[nH]1)NCc1ccco1 | 6.5 |
| O=C1CCCC2=C1C(c1cccs1)Nc1ccc3ncccc3c12 (stereo not drawn) | -1.86 |
| CSc1ccccc1C(=O)NCCCOC(C)C | 6.42 |
| O=C(O)CSc1nc2c(cnn2-c2ccccc2)c(=O)n1-c1ccc(Br)cc1 | 6.84 |
| COc1ccc(OC)c(NC(=O)CSc2nnc(CNC(=O)COc3ccc(Cl)cc3)o2)c1 | -60.1 |
| Cc1noc(NS(=O)(=O)c2ccc(NC(=O)c3ccc(N4C(=O)c5ccccc5C4=O)cc3)cc2)c1C | 25.9 |
| COc1cccc2cc(C(=O)NCCN3CCOCC3)c(=O)oc12 | 12.9 |
| Cc1c(C(=O)Nc2ccc(F)cc2)oc2ccc(S(=O)(=O)N3CCC4(CC3)OCCO4)cc12 | -4.85 |
| Cc1cc(NC(=O)Cn2nc(C(F)(F)F)c3c2CCC3)no1 | 20 |
| O=C(NCc1ccoc1)c1ccc(NC(=O)c2ccccc2Cl)cc1 | 8.89 |
| Cc1ccc(C(=O)N(Cc2nnc(-c3ccc(Cl)cc3)o2)C2CC2)o1 | -32.6 |
| C=CCNC(=O)c1ccc(C(=O)c2ccccc2)cc1 | -27.8 |
| Cc1ccccc1OCc1n[nH]c(=S)n1-c1cccc(Cl)c1 | 20.3 |
| Cc1csc(N(C(=O)c2ccc(S(=O)(=O)N(C)C)cc2)c2ccccc2)n1 | 2.84 |
| CCCCn1c(O)c(N=Nc2ccccn2)c2ccccc21 | 7.6 |
| COc1cccc(N2CCN(S(=O)(=O)c3ccc(-c4coc(C)n4)cc3)CC2)c1 | 16.5 |
| COC(=O)c1ccc(-c2n[nH]c(=O)c3ccccc23)cc1 | -6.97 |
| O=C(/C=N/O)Nc1ccccc1C(=O)O | -13.7 |

| SMILES | hERG current change (%, negative = inhibition) at 10uM [%] |
| --- | --- |
| CC1CCCN(C(=O)COC(=O)c2n[nH]c3ccccc23)C1 (stereo not drawn) | -11.5 |
| Cc1ccc(CSC2=NCCN2C(=O)C(C)Oc2ccccc2)cc1 (stereo not drawn) | 5.99 |
| Cc1cc(NC(=O)C2C3C(=O)N(CC4CCCO4)C(C(=O)NC(C)(C)C)C34C=CC2(C)O4)no1 (stereo not drawn) | 7.22 |
| N#Cc1c(C(F)(F)F)cc(-c2ccc(Cl)cc2)nc1SCC(=O)O | 4.82 |
| O=C(CC(C(=O)O)c1c[nH]c2ccccc12)c1ccccc1 (stereo not drawn) | 26.2 |
| C=CCNc1nc(-c2sc(NC(C)=O)nc2C)cs1 | -2.04 |
| O=S(=O)(Nc1ccc(O)c(NS(=O)(=O)c2ccccc2)c1)c1ccccc1 | 5.67 |
| COCC(C)NC(=O)CSc1nc2ccccc2c(=O)n1CCc1ccc(S(N)(=O)=O)cc1 (stereo not drawn) | 7.52 |
| O=Cc1cccc(Oc2ccc([N+](=O)[O-])cc2[N+](=O)[O-])c1 | -55 |
| C[C@@H](C(=O)NCC1CC1)[C@@H]1C[C@@]1(C)[C@@H](NC(=O)OCc1ccccc1)c1ccccc1 | -34.6 |
| Cc1cc(C)c(S(=O)(=O)c2ccccc2)c(OC(=O)c2c(Cl)cc(Cl)cc2Cl)n1 | -8.9 |
| Cc1c(C(=O)N/N=C/C(C)C)[nH]c2c([N+](=O)[O-])cccc12 | 10.4 |
| Cc1c(Cl)cccc1NC(=S)N1CC2CC(C1)c1cccc(=O)n1C2 (stereo not drawn) | -4.67 |
| Cc1cc(C)c(S(=O)(=O)N(CC(=O)O)CC(=O)O)c(C)c1 | 6.78 |
| CCC(C)Sc1ccc([C@H]2N[C@@](CC(C)C)(C(=O)OC)[C@H]3C(=O)N(C)C(=O)[C@@H]23)cc1.O=C(O)C(F)(F)F (stereo partly drawn) | -41.8 |
| COC(C(=O)Nc1ccc(S(=O)(=O)Nc2cccc3ccccc23)cc1)c1ccccc1 (stereo not drawn) | -0.5 |
| CCCC(C)n1[nH]c(=O)cc1N (stereo not drawn) | 14.2 |
| O=C(CN1CCc2ccccc2C1)NC1CCCC1 | 8 |
| Cc1cc(NC(=O)CSc2nc3ccsc3c(=O)n2Cc2ccccn2)n[nH]1 | -1.55 |
| CCOC(=O)c1c(C)c(-c2ccccc2)n(CC(=O)NCCCN(CC)CC)c1C | -12.6 |
| O=C(NCc1ccc(F)cc1)Nc1cccc(Cl)c1 | 25.3 |
| COc1cccc(NC(=S)N2CCN(S(C)(=O)=O)CC2)c1 | 10.3 |

| SMILES | hERG current change (%, negative = inhibition) at 10uM [%] |
| --- | --- |
| Clc1ccccc1N1CCN(Cc2ccc3c(c2)OCO3)CC1.O=C(O)C(=O)O | -7.35 |
| O=C(c1ccc(N2CCCCC2)c([N+](=O)[O-])c1)N(c1ccccn1)c1ccccn1 | 5.73 |
| CCOC(=O)C1CCCN(CC(=O)Nc2c(C(=O)OC)[nH]c3ccccc23)C1 (stereo not drawn) | -25.2 |
| NC(=O)C1(N2CCCCC2)CCN(C(=O)CSc2nc3ccccc3[nH]2)CC1 | 7.81 |
| Cc1noc(C)c1COc1ccc(C(=O)N2CCCC(C(F)(F)F)C2)cc1 (stereo not drawn) | -18.8 |
| CCOC(=O)c1oc2nc(CC(C)C)c3c(c2c1N)CCC3 | 7.9 |
| CC(Oc1ccc(Cl)cc1)C(=O)Nc1ccc(S(=O)(=O)N2CCOCC2)cc1 (stereo not drawn) | -19.1 |
| COc1ccc(CC(=O)OCN2C(=O)c3ccccc3C2=O)cc1 | 3.16 |
| CCc1c(C)nc2ncnn2c1Nc1ccc(C#N)c(Cl)c1 | -50.6 |
| CC(C)(C)C1=C[C@@H](CO)C[C@@H](CO)C1 | 1.79 |
| O=C(c1cc(=O)[nH]c2ccccc12)N1CCN(c2cccc(C(F)(F)F)c2)CC1 | -27.1 |
| CCOc1ccc(C(=O)n2cc(C(=O)OC)c3ccccc32)cc1 | 8.21 |
| COc1ccc(Nc2nc(-c3cccc(OC)c3O)nc3ccccc23)cc1 | 23.6 |
| CC(=O)/C(C#N)=C1\NC(=O)C(Cc2cc(Cl)ccc2Cl)S1 (stereo not drawn) | 3.25 |
| CC1CCCN(c2ccc(C(=O)NCc3ccc4c(c3)OCO4)cc2[N+](=O)[O-])C1 (stereo not drawn) | 1.28 |
| CN(C)c1ccc(/C=N/NC(=O)CN2CCN(c3ccc(F)cc3)CC2)cc1 | 1.78 |
| Cc1cccc(/C=N/n2c(-c3ccco3)n[nH]c2=S)c1 | -17.8 |
| COc1ccc(-n2nc(C(=O)NCC(=O)NCCCN3CCCCCC3)c3ccccc3c2=O)cc1Cl | -56 |
| CC1=CN2C(=N)/C(=C/c3cn(CCCOc4ccccc4C)c4ccccc34)C(=O)N=C2S1 | 13.8 |
| CC(=O)Nc1ccc(OC(=O)Oc2ccc(NC(C)=O)cc2)cc1 | 0.315 |
| Cc1ccc(CNC(=O)CCc2nnc(Cc3ccc(-c4ccccc4)cc3)o2)o1 | 8.89 |
| O=c1[nH]cnc2c1nc(NCc1ccccc1)n2C1O[C@@H](CO)[C@H](O)[C@@H]1O (stereo partly drawn) | 3.99 |

| SMILES | hERG current change (%, negative = inhibition) at 10uM [%] |
| --- | --- |
| Cc1cc(C)c2c(n1)nn1c(NCCN3CCOCC3)cc(C)nc21 | -0.656 |
| Nc1ccc(C(=O)Nc2ccc3nc(-c4cccnc4)[nH]c3c2)cc1 | 4.27 |
| COc1ccc(C(=O)N2CCCC(C(=O)N3CCN(c4ccccc4)CC3)C2)cc1 (stereo not drawn) | -9.18 |
| [O-][n+]1c2cc(C(F)(F)F)ccc2c2n1CCN=C2c1ccc(Cl)cc1 | -55.6 |
| O=C(NCCc1ccc(Cl)cc1)C1CCCO1 (stereo not drawn) | 12.8 |
| C1=Nc2c(NCc3ccccc3)ncnc2Oc2ccccc21 | -5.01 |
| COc1ccccc1NS(=O)(=O)c1ccc(C)c(NC(=O)C2CCCO2)c1 (stereo not drawn) | 4.4 |
| O=C(O)c1ccccc1SC1CC(=O)N(c2ccc3c(c2)OCO3)C1=O (stereo not drawn) | 7.42 |
| CCOc1cccc(C(=O)Nc2cnn(Cc3ccccc3)c2)c1 | 9.05 |
| O=[N+]([O-])c1ccc2c(c1)C(N1CCOCC1)/C(=C/C1(O)CCCCC1)O2 (stereo not drawn) | 0.294 |
| CC(C)(C)c1nc(-c2ccccc2)nc2c1OCCC2 | 9.73 |
| NC(=O)N1CCCC1C(=O)Nc1ccc(Cl)c(Cl)c1 (stereo not drawn) | 3.86 |
| O=C(c1cccnc1)N1CCN(S(=O)(=O)c2cccc(Cl)c2)CC1 | 2.83 |
| O=c1c2cnn(-c3ccccc3Cl)c2ncn1Cc1cccnc1 | 15.5 |
| Cc1cc(/C=C(\C#N)c2nnc(N3CCOCC3)n2-c2ccccc2)c(C)n1-c1ccccc1 | -36.7 |
| COCCNC(=O)CSc1nc2cc(OC)c(OC)cc2c(=O)n1CCc1ccc(S(N)(=O)=O)cc1 | 13.2 |
| Cl.O=C(NCc1ccncc1)c1cccc(Cn2cc(Br)cn2)c1 | -20.1 |
| CCn1cc(C(=O)O)c(=O)c2cc(Br)ccc21 | -46.7 |
| CC(C)NC(=O)CSc1nnc(C2CC2)n1-c1ccccc1 | 9.62 |
| O=c1c([N+](=O)[O-])c(N2CCOCC2)c2ccccc2n1Cc1ccccc1 | 1 |
| CN(C)CCCNC(=O)c1ccc(=O)[nH]n1 | 8.18 |
